Measured values: PubChem BioAssay (NCI)
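The compound was tested at five concentrations on cells cultured in 96-well plates, with a 48-hour exposure period. GI50 is the concentration that inhibits growth by half.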 Some entries of the source have several records that differ or are many. Only these are listed. The source may hold further records. The tests behind the records often covered other concentration ranges, which the source does not state; some values may only mark the edge of a range. Brackets tell where a record comes from. A, B and so on number the origins entry by entry.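 TGI is the concentration that stops growth completely.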

Columns and labels:
Test in all cases: inhibition of tumour cell growth, NCI panel, 48 h
[1] = system: BT-549 breast
[2] = system: UACC-257 melanoma
[3] = system: OVCAR-4 ovarian
[4] = system: NCI-H23 lung
[5] = system: UO-31 renal
[6] = system: M14 melanoma
[7] = system: OVCAR-8 ovarian
[8] = system: RXF 393 renal
[9] = system: SNB-75 CNS
[10] = system: M19-MEL melanoma
[11] = system: CCRF-CEM leukemia
[12] = system: DMS 273 small cell lung
[13] = system: MOLT-4 leukemia
[14] = system: SF-295 CNS
[15] = system: SW-620 colon
[16] = system: SK-MEL-28 melanoma
[17] = system: HOP-92 NSCLC
[18] = system: NCI-H522 lung
[19] = system: XF 498 CNS
[20] = system: OVCAR-3 ovarian
[21] = system: DU-145 prostate
[22] = system: KM12 colon
[23] = system: 786-0 renal
[24] = system: SF-539 CNS
[25] = system: NCI/ADR-RES ovarian
[26] = system: MCF7 breast
[27] = system: ACHN renal
[28] = system: HT29 colon
[29] = system: HL-60(TB) leukemia
[30] = system: HCT-116 colon

With COc1cccc2c1C(=O)c1c(O)c3c(c(O)c1C2=O)C[C@@](O)(C(C)=O)C[C@@H]3OC1CC(N)C(O)C(C)O1 (stereo partly drawn) the TGI [1] was 1.86 µM, 551 nM, 857 nM [sample A, mean of 2 tests] and 1.09 µM [sample A, mean of 21 tests] and 1.34 µM [sample B, 1 test], the TGI [2] was 958 nM, > 5.01 µM [sample A, 1 test] and 675 nM, 443 nM [sample A, mean of 2 tests] and 784 nM [sample A, mean of 36 tests] and 1.11 µM [sample A, mean of 67 tests] and 357 nM [sample B, mean of 2 tests] and the TGI [3] was > 5.01 µM [sample A, 1 test] and 2.35 µM, 1.68 µM, 686 nM [sample A, mean of 2 tests] and 1.77 µM [sample A, mean of 38 tests] and 2.16 µM [sample A, mean of 64 tests] and 457 nM [sample B, mean of 2 tests]. The TGI [4] was > 5.01 µM [sample A, 1 test] and 351 nM, 371 nM, 132 nM [sample A, mean of 2 tests] and 341 nM [sample A, mean of 44 tests] and 416 nM [sample A, mean of 69 tests] and 240 nM [sample B, mean of 2 tests], the TGI [5] was 1.52 µM, 2.37 µM, 3.14 µM, 3.52 µM, > 5.01 µM [sample A] and 2.57 µM [sample B] and the TGI [6] was > 5.01 µM [sample A, 1 test] and 698 nM [sample A, mean of 12 tests] and 1.34 µM, 1.19 µM, 465 nM [sample A, mean of 2 tests] and 943 nM [sample A, mean of 71 tests] and 524 nM [sample B, mean of 2 tests]. The TGI [7] was 384 nM, 622 nM, 6.1 µM [sample A, 1 test] and 548 nM [sample A, mean of 2 tests] and 2.24 µM [sample A, mean of 40 tests] and 2.07 µM [sample A, mean of 70 tests] and 977 nM [sample B, mean of 2 tests], the TGI [8] was > 50 µM [sample A, 1 test] and 539 nM, 500 nM, 453 nM [sample A, mean of 2 tests] and 435 nM [sample A, mean of 35 tests] and 774 nM [sample A, mean of 59 tests] and 547 nM [sample B, mean of 2 tests] and the TGI [9] was 258 nM, > 5.01 µM [sample A, 1 test] and 848 nM, 181 nM [sample A, mean of 2 tests] and 564 nM [sample A, mean of 42 tests] and 579 nM [sample A, mean of 61 tests] and 181 nM [sample B, mean of 2 tests]. For the same compound, the TGI [10] was 506 nM, 359 nM, > 5.01 µM, the TGI [11] was 713 nM, 564 nM, 842 nM, 85.9 nM, 1.94 µM, > 5.01 µM [sample A] and 448 nM [sample B] and the GI50 [12] was > 5.01 µM [1 test] and 15.8 nM [mean of 37 tests]. For the same compound, the TGI [12] was 511 nM, 350 nM, > 5.01 µM, the TGI [13] was 304 nM, 99.2 nM, 384 nM, > 5.01 µM and the TGI [14] was > 5.01 µM [sample A, 1 test] and 417 nM, 191 nM [sample A, mean of 2 tests] and 508 nM [sample A, mean of 40 tests] and 556 nM [sample A, mean of 71 tests] and 156 nM [sample B, mean of 2 tests]. For the same compound, the TGI [15] was 2.02, 2.42, 1.13, 1.23, 2.99, 6.25 µM [sample A] and 674 nM [sample B], the TGI [16] was 1.26 µM, 1.22 µM, 745 nM, 1.04 µM, > 15.8 µM [sample A] and 625 nM [sample B] and the TGI [17] was > 5.01 µM [sample A, 1 test] and 600 nM, 167 nM, 412 nM [sample A, mean of 2 tests] and 614 nM [sample A, mean of 39 tests] and 772 nM [sample A, mean of 62 tests] and < 27.1 nM [sample B, mean of 2 tests]. For the same compound, the TGI [18] was 336 nM, > 5.01 µM [sample A, 1 test] and 204 nM, 309 nM [sample A, mean of 2 tests] and 283 nM [sample A, mean of 39 tests] and 358 nM [sample A, mean of 62 tests] and 175 nM [sample B, mean of 2 tests], the GI50 [19] was > 5.01 µM [1 test] and 80 nM [mean of 34 tests] and the TGI [19] was 431 nM, 254 nM, > 5.01 µM. The TGI [20] was 899 nM [sample A, 1 test] and 4.57 µM, 658 nM [sample A, mean of 2 tests] and 1.57 µM [sample A, mean of 40 tests] and 1.79 µM [sample A, mean of 68 tests] and 1.66 µM [sample B, mean of 2 tests], the GI50 [21] was 222 nM, 29.4 nM [sample A, 1 test] and 75.6 nM [sample A, mean of 22 tests] and 64.6 nM [sample B, 1 test] and the TGI [21] was 165 nM [sample A, 1 test] and 1.73 µM [sample A, mean of 22 tests] and 15.3 µM [sample B, 1 test]. The TGI [22] was > 5.01 µM [sample A, 1 test] and 3.1 µM, 1.05 µM, 514 nM [sample A, mean of 2 tests] and 2.29 µM [sample A, mean of 38 tests] and 2.42 µM [sample A, mean of 70 tests] and 988 nM [sample B, mean of 2 tests], the TGI [23] was 663 nM, 1.32 µM, 221 nM, 1.52 µM, 470 nM, > 5.01 µM [sample A] and 792 nM [sample B] and the TGI [24] was 376 nM, 381 nM, 386 nM, 194 nM, 396 nM, > 5.01 µM [sample A] and 367 nM [sample B]. For the same compound, the TGI [25] was 29, 8.53, 24.9, 19.8 µM [sample A] and 17 µM [sample B], the TGI [26] was 6.63, 2.64, 4.83, 3.69, 1.41 µM [sample A] and 4.17 µM [sample B] and the TGI [27] was 174 nM, 17.2 µM [sample A, 1 test] and 253 nM [sample A, mean of 12 tests] and 451 nM [sample A, mean of 61 tests] and 97.4 nM [sample B, mean of 2 tests]. The TGI [28] was 16.6 µM [sample A, 1 test] and 1.73 µM, 842 nM, 1.24 µM [sample A, mean of 2 tests] and 2.24 µM [sample A, mean of 43 tests] and 2.27 µM [sample A, mean of 71 tests] and 1.24 µM [sample B, 1 test], the TGI [29] was 737 nM, 349 nM, 7.93 µM, < 12.9 nM, 139 nM, > 5.01 µM [sample A] and 176 nM [sample B] and the TGI [30] was 679 nM, > 5.01 µM [sample A, 1 test] and 1.89 µM [sample A, mean of 20 tests] and 1.74 µM [sample A, mean of 54 tests] and 3.91 µM [sample B, mean of 2 tests].
